Assay results published in PubChem BioAssay AID1030 (National Center for Advancing Translational Sciences (NCATS), 2008).
Out of some 220,000 compounds screened, about 16,000 (7.3%) were called active. The inconclusive results got no clear call from the source; some entries with a clear call stand among them for comparison. Calls come from the whole dose curve; as a rule, active = well fitted inhibition curve with a large enough effect (not every such curve was filed as active); inconclusive = small, poorly fitted or top-dose-only effect, or another doubt; inactive = no such curve, though single readings can be large or run the other way. Potencies beside an inconclusive call are fits to weak or partial responses and may not hold up.

molecular target: Aldehyde dehydrogenase 1A1 (Homo sapiens) (UniProt P00352); experiment: qHTS Assay for Inhibitors of Aldehyde Dehydrogenase 1 (ALDH1A1); conditions: Purified ALDH1A1, NADH fluorescence, propionaldehyde substrate; series mostly up to 75.3 µM;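 for activity, negative = inhibition: plate controls were no enzyme wells and a reference inhibitor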
Sequence of UniProt P00352 (P00352 whole entry, looked up): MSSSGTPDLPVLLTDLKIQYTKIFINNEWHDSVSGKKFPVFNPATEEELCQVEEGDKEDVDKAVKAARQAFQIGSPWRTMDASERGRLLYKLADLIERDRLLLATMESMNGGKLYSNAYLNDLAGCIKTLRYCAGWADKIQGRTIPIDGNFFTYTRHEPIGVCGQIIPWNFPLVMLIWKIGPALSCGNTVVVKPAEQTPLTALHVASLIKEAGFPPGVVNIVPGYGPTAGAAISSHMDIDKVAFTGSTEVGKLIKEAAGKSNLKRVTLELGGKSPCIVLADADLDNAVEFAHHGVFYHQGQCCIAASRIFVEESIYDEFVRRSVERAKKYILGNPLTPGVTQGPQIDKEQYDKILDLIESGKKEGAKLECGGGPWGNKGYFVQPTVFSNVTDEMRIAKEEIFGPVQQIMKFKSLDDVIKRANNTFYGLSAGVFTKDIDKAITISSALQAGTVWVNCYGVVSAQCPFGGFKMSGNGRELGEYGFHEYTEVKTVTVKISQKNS
Potency is the fitted concentration of half-maximal effect; tags give direction and shape of the fitted curve.

Potency, active:
O=C(CSCc1ccccc1Cl)NNC(=S)Nc1ccccc1 14.1 µM
CCOC(=O)C1=C(O)c2ccccc2C(=O)/C1=C\c1ccc(C)cc1 7.94 µM
CC(CC1C(C#N)=C(N)SC(N)=C1C#N)c1ccccc1 (centres undefined) 10 µM
COc1ccc(CCN(Cc2ccccn2)C(=S)Nc2ccccc2C)cc1OC 20 µM
Cc1ccc(S(=O)(=O)N(C)CC(=O)N2CCCC2)cc1 3.55 µM
CCn1c(=O)c(-[n+]2ccccc2)c(O)c2ccccc21 25.1 µM
CCOC(=O)N1CCN(CC(=O)c2ccc3c(c2)CCN3C(C)=O)CC1 25.1 µM
COc1ccc(C(=O)NC(=S)NNC(=O)CCc2ccccc2)cc1 25.1 µM
O=C(NC1CC2CCCC(C1)N2S(=O)(=O)c1ccccc1)C1CCCCC1 (centres undefined) 28.2 µM
COC(=O)c1ccc(N2NC(=O)/C(=C/c3ccc(-c4ccc(Cl)c(C(=O)O)c4)o3)C2=O)cc1 8.91 µM
CCCCC1(C)NC(=O)N(CC(=O)Nc2ccc(S(=O)(=O)N3CCOCC3)cc2)C1=O (centres undefined) 3.16 µM
CN(Cc1ccco1)C(=O)C(Cc1ccccc1)NS(=O)(=O)c1ccc2c(c1)CCC(=O)N2 (centres undefined) 25.1 µM
O=c1[nH]c(/C(=N\O)c2ccccc2)no1 23.8 µM

Potency, inconclusive:
Cn1c(/N=C/c2c(O)ccc3ccccc23)nc2ccccc21 4.47 µM [inhibitor, partial curve]
COc1ccc(-c2ccc(CCC(=O)O)n2CC2CCCO2)cc1 (centres undefined) 25.1 µM [inhibitor, partial curve]
Cc1cc(Cl)ccc1Oc1nc(-c2ccc(F)cc2)ccc1C#N 25.1 µM [inhibitor, partial curve]
Cc1ccc(NC(=S)NCc2ccc(S(N)(=O)=O)cc2)cc1Cl 1.26 µM [inhibitor, partial curve]
C=CCn1c(-c2cccs2)nc2ccccc21 31.6 µM [inhibitor, partial curve]
COc1ccc(-c2cc3ccccc3n2CC(O)CNC(CO)(CO)CO)cc1 (centres undefined) 39.8 µM [inhibitor, single point]
O=C(c1ccc([N+](=O)[O-])o1)N1CCOCC1 35.5 µM [inhibitor, single point]
COc1ccccc1NC(=O)c1nnn(CC(=O)Nc2cccc(SC)c2)c1N 25.1 µM [inhibitor, partial curve]
Cc1ccc2cc(CN(C(=O)c3cccnc3)C(C)C)c(=O)[nH]c2c1 39.8 µM [inhibitor, single point]
N#Cc1c(NCCO)nc(NCc2ccccc2)c2c1CCN(Cc1ccccc1)C2 11.2 µM [inhibitor, partial curve]
COc1ccc(Br)cc1CN(C)C(C)C(=O)Nc1cc([N+](=O)[O-])ccc1OC (centres undefined) 39.8 µM [inhibitor, single point]
O=C(Nc1cccc(-c2cn3ccccc3n2)c1)C1CC1 28.2 µM [inhibitor, partial curve]
CCCCN1CCc2[nH]c(=S)[nH]c(=O)c2C1 22.4 µM [inhibitor, single point]
CN(CC(=O)Nc1ccc(F)cc1)c1ccc(S(=O)(=O)N2CCCC2)cn1 25.1 µM [inhibitor, partial curve]
O=c1[nH]n(-c2ccc(Cl)cc2)c(=O)c(Cl)c1Cl 39.8 µM [inhibitor, single point]
NCCNc1cccc2ccccc12 31.6 µM [inhibitor, partial curve]
COc1cccc(CC(NC(C)=O)C(=O)NC2CCN(c3nc(C)cc(C)c3C#N)CC2)c1 (centres undefined) 39.8 µM [inhibitor, single point]
O=C(Nc1cccc(C(F)(F)F)c1)n1cc(-c2ccccn2)c(N2CCOCC2)n1 14.1 µM [inhibitor, partial curve]
Cc1cc(C)c2c(c1)-c1c(ssc1=S)C(C)(C)N2C(=O)CSc1nncn1C 44.7 µM [inhibitor, single point]
CC(=O)c1cccc(NC(=S)NC(=O)c2ccccc2Br)c1 39.8 µM [inhibitor, single point]
CN1CCN(NS(=O)(=O)c2cccs2)CC1 20 µM [inhibitor, single point]
COc1ccc(N2CCN(CC(O)COC(C)(C)C)CC2)cc1 (centres undefined) 22.4 µM [inhibitor, single point]
O=C1C(Cl)=C(N2CCCCC2)C(=O)N1Cc1ccccc1 28.2 µM [inhibitor, single point]
CSc1ccc(C(=O)C2CCCN(C(=O)c3ccc(C)nc3)C2)cc1 (centres undefined) 39.8 µM [inhibitor, single point]
Cc1ccc2c(CC(=O)NC3CCCc4ccccc43)coc2c1 (centres undefined) 14.1 µM [inhibitor, partial curve]
Cc1c(C=O)c(=O)n(-c2ccccc2)n1-c1ccccc1 22.4 µM [inhibitor, single point]
CCOC(=O)Cc1cc(-c2ccccc2)nc2ccc3ccccc3c12 39.8 µM [inhibitor, single point]
CCS(=O)(=O)N1CCCC(C(=O)NCCc2ccc(C)cc2)C1 (centres undefined) 35.5 µM [inhibitor, single point]
COc1ccc(-c2csc3nc(-c4ccccc4OC)oc(=O)c23)cc1 35.5 µM [inhibitor, single point]
C/C=C/c1ccc(OC(C)[C@@H](O)c2ccc(O)c(OC)c2)c(OC)c1 (some centres undefined) 39.8 µM [inhibitor, single point]
Cc1cccc(CNc2ncncc2-c2cccc(NS(C)(=O)=O)c2)c1 31.6 µM [inhibitor, single point]
O=C(CCCc1nc2ccccc2s1)NCc1ccc(F)cc1 39.8 µM [inhibitor, single point]
Cc1cc(C)n(Cc2ccc(F)cc2)c(=O)c1C#N 44.7 µM [inhibitor, single point]
CCOc1ccc2c(c1)-c1c(ssc1=S)C(C)(C)N2C(=O)c1ccco1 25.1 µM [inhibitor, single point]
CC(C)(C)OC(=O)N/N=C\c1ccc(OC(=O)c2ccco2)cc1 35.5 µM [inhibitor, single point]
CCOc1ccc(-c2csc(NNC3=NCCCCC3)n2)cc1 8.91 µM [inhibitor, partial curve]
O=C(COC(=O)c1cc(=O)[nH]c2ccccc12)c1cccs1 39.8 µM [inhibitor, single point]
Cc1ncoc1C(=O)N1CCCC(C(=O)c2ccc(-c3ccccc3)cc2)C1 (centres undefined) 35.5 µM [inhibitor, single point]
O=C(CS(=O)(=O)Cc1ccccc1)Nc1nc2c(s1)CCCC2 39.8 µM [inhibitor, single point]
COc1ccccc1NC(=O)CN1CCN(CC(=O)Nc2cc(NC(C)=O)ccc2OC)CC1 31.6 µM [inhibitor, single point]
CCC(=O)NCCNc1nc2cc(C)cc(C)c2cc1C#N 35.5 µM [inhibitor, single point]
CCC(C)(C)NC(=O)C(OC(=O)c1ccco1)c1ccccc1OC (centres undefined) 12.6 µM [inhibitor, partial curve]
O=c1nc(NCc2ccccc2Cl)cn[nH]1 39.8 µM [inhibitor, single point]

Potency, inactive:
O=C(CSc1nnc(SCc2ccc(Cl)cc2)s1)N/N=C/c1c[nH]c2ccccc12
O=C(CSc1ccc2nnc(-c3ccncc3)n2n1)Nc1nccs1
Cc1ccc(CN2C(=O)N/C(=C\c3ccc(N4CCOCC4)cc3)C2=O)cc1
COc1ccc2cnn(-c3ccc(OC(F)(F)Cl)cc3)c(=O)c2c1OC
COc1ccc(CC(=O)OC2CCCN(C)C2)cc1 (centres undefined)
CCOc1cc(CNc2ccc(CNc3ncn[nH]3)cc2)ccc1OCc1ccccc1
Cc1[nH]oc(=O)c1N=Nc1ccccc1
Cn1c(O)c(N=NC(=O)c2ccccc2O)c2ccccc21
CCOC(=O)Nc1oc2ccccc2c(=O)c1CN1CCOCC1
Cc1c(Cl)cccc1NC(=O)C(=O)NNC(=O)c1ccccc1F
CCn1c(-c2cc(Cl)ccc2OC)n[nH]c1=S
CCOc1ccc(-c2nc[nH]c2[N+](=O)[O-])cc1
OCCN=c1cc(-c2ccccc2)oc2ccc(Cl)cc12
c1ccc(Nc2nc(-c3ccccn3)cs2)cc1
COC(=O)c1ccc(/C=N/N2C(C)CCCC2C)cc1 (centres undefined)
CCCCCCCC(=O)OC[C@H](CO)OC(=O)CCCCCCC
O=C(/C=C/c1ccccc1)OC1CC(O)C2(O)C=CO[C@@H](OC3OC(CO)C(O)C(O)C3O)C12 (some centres undefined)

activity, negative = inhibition, inactive:
CC(=O)OC[C@@H]1O[C@@H](O/N=C2/C[C@@H](O)[C@@H](O)[C@@H]3[C@@H]4C(=O)N(C[C@@H]5CCCO5)C(=O)[C@H]4CC[C@@H]23)[C@H](OC(C)=O)[C@H](OC(C)=O)[C@@H]1OC(C)=O -1.6% [at 13.5 µM]
